# ± gives the standard deviation of the averaged measurements. This is one part of the list.
# System: PfAP2-LT AP2 domain (GST-tagged)
# Test: gcPBM binding intensity (ln(normalized median fluorescence intensity)); higher = stronger DNA binding
# Method in brief: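 GST-fused DNA-binding domains of P. falciparum, expressed in E. coli, were applied at about 25 μg on average for 1 h to an Agilent 4 × 180k array of primer-extended double-stranded 36-bp intergenic genomic probes and negative controls. Binding intensity is the highest Masliner-normalised natural-log median intensity across replicate spots of either probe orientation, measured with Alexa488 anti-GST antibody and a 488 nm scan.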
row,Sequence,gcPBM binding intensity (ln)
1,AAACAATTGAATAAATGTACAGATACATTTTTTTAA [XGTACX_site5386],8.59 ± 0.38
2,TATTTATCTATTTTGTTATATAATAAAATAAAATAA [CACACA_negctrl_site281],8.01 ± 0.44
3,AAAAATAAACAAAATTGTACACATTACATACATATA [XGTACX_site966],8.85 ± 0.43
4,ATACATACAAAAATTTGTACATATTTCCAATAATGT [XGTACX_site2658],8.73 ± 0.4
5,GAAAAAACGAAAAAAATACACACCTGAAAAGATATG [CACACA_site887],9.12 ± 0.42
6,GCCATAATATGACATACACACACAAAAAAAAAAAAA [CACACA_site8353],9.36 ± 0.61
7,AAATTTCCATTTGGGTGTACATGTGAAACTACAAAG [XGTACX_site208],8.69 ± 0.48
8,TTTTTATTTATATGATACTTATATATATATATATAT [CACACA_negctrl_site462],9.01 ± 0.4
9,TCTTTTAAAAAAATTTGTACATATTTTTTGTATTAT [XGTACX_site67],8.68 ± 0.51
10,TTCTTAATATTGCATGCACACTATATAATAATTGAA [CACACA_site4720],9.05 ± 0.3
11,TTTTCCCTCTTATTCACACAAAAAAAATAAAATAAA [CACACA_site4656],8.2 ± 0.42
12,ACACTAACATCATATCGTACATTTGTTAATTTATAA [XGTACX_site8654],8.74 ± 0.36
13,TATTTATTTTTTTTTGTGCACTTAATATAATCTTAC,8.82 ± 0.58
14,TATTTGAAAACATAGGTGCACATTATTTTATAATCT [GTGCAC_site9947],8.8 ± 0.55
15,GAAAGAATAAAATTTACACACATATAAATATACATA [CACACA_site7125],8.96 ± 0.47
16,TTTATTCTTGAGTATTGTACATATGTGTTTGTATAT [XGTACX_site5706],8.93 ± 0.45
17,AAAGGTGTCATATATGCACACAAAAGTAACACGCAC [CACACA_site8051],9.39 ± 0.32
18,AGGAGGATGCATATGGCACACATTATGAAACTGTCG [CACACA_site299],9.16 ± 0.51
19,TTTTTTTTTGAATACAGTACACAAGTGTTAAGTTTA [XGTACX_site7069],8.45 ± 0.38
20,TGTTCTTTGTTCAGCGCATGTAAAATAAAATAAAAT [TGCATGCA_site629],8.6 ± 0.26
21,GATTGATTATATGTGTGTACTTATATGTTAAAAAAA [XGTACX_site4784],8.83 ± 0.42
22,TATGAATATCTATACACACACATATATATACCCACT [CACACA_site4963],9.62 ± 0.17
23,TAAAGAATAATACATTCACACAATATTATAAAAATA [CACACA_site5986],8.63 ± 0.47

row,Sequence,gcPBM binding intensity (ln)
1,GAAATGTCATATAATAGTACACACATGAAAATATAA [XGTACX_site6838],9.14 ± 0.47
2,TATGATTAATTACCACAATTGACAAAAAAAAAAAAA [CACACA_negctrl_site336],8.52 ± 0.36
3,TTGTATGAATTTATTTTTATTGATAATTAATATGTA [TGCATGCA_negctrl_site143],8.43 ± 0.4
4,TATAAGTATTAATACACACACAAAATAATAAAAAAA [CACACA_site3481],9.33 ± 0.34
5,AAAAATAAAGGATATACACACTAATTCTATAAATAT [CACACA_site7344],8.93 ± 0.33
6,GTCTCGATAATGAAAAGTACAAAATAAAAATAATAA [XGTACX_site6471],8.77 ± 0.52
7,TTGTTCTATATATATGCATGCACGTATGTTAAATTA [TGCATGCA_site659],9.22 ± 0.24
8,TCTCATATATTGAATTGTACATATGTTAAAATATAG [XGTACX_site6764],8.5 ± 0.27
9,TATTAATTTTTATACGCATGTGTATAGTAATATATA [TGCATGCA_site1010],8.66 ± 0.37
10,ATACAAAAGGGGAATACACACACATATATATATATA [CACACA_site8694],10.12 ± 0.021
11,AATAAACATAGATGTACACACATATACAGATATATA [CACACA_site5570],9.26 ± 0.45
12,TTAATATATTTTAAAAGTACATAATATTATTTTTTA [XGTACX_site3642],8.09 ± 0.45
13,AAGAAAAGAACAAGAGCATGCACTTAATAAGAATAA [TGCATGCA_site818],9.06 ± 0.42
14,TATAGTTTTGAAAACAAACACACAAAAAAAAAAAAA [CACACA_site1691],8.63 ± 0.53
15,AAGAGGTTAATGAAATGTACACATATATATATATAT [XGTACX_site1861],9.79 ± 0.49
16,TTTTATAAATATTATACATGCATAATGATAAAAAAA [TGCATGCA_site927],8.46 ± 0.44
17,ATAATTTCACAAATAGTGCAAAAATTAGTAAGAATA [GTGCAC_site9648],8.73 ± 0.53
18,TTTTTTTTCTATGTGGTGCACATTATTTTTTTTTTT,8.81 ± 0.5
19,TATGTAACCTGTTTTACACACCCCCACCCCCCTCTT [CACACA_site319],10.09 ± 0.05
20,TTTAAATACAGACATACACACATACACAGACATATA [CACACA_site4460],9.43 ± 0.25
21,AAAAAAAACAGACACACACACATACAAAATATATAT [CACACA_site1449],9.79 ± 0.3
22,CTCTATTGTTAAAAGGTGCTTTTATGATTTTATATA [GTGCAC_site9409],8.57 ± 0.54
23,AAAATTTATGGAAGGTGTACTGTTAATTATGTATAT [XGTACX_site6446],8.74 ± 0.36

row,Sequence,gcPBM binding intensity (ln)
1,ATATTAAAGATATATACACACATATTTATAAATATA [CACACA_site7127],8.8 ± 0.42
2,GAAGACAATTATATGTGTACATATATATACATATAT [XGTACX_site4630],8.95 ± 0.37
3,GGAATTCATATTAATTGTACATTTAAAGATAGATGA [XGTACX_site3279],8.6 ± 0.53
4,AGTAGATATTATTATAGTACTTTTTATTTTATATTT [XGTACX_site1551],8.7 ± 0.42
5,ATATTTTACATATTTGCACACATATATTTATATACA [CACACA_site855],9.38 ± 0.33
6,ATATATATATATATATGTACTTATTTATTTATTTAT [XGTACX_site4645],9.63 ± 0.16
7,TAATATGTGGACTTTACACACTTGTTTTAAAATTCT [CACACA_site4605],8.77 ± 0.49
8,TGTATACATTATTAAGTGCAAGTAGGGAAAAAAAAA,8.72 ± 0.47
9,GATGATACGATTATCACACATTTATACTTTCTACAT [CACACA_site5669],9.01 ± 0.49
10,ATATAAAAATAATAGAGTACAAAAAAAAAATGTATA [XGTACX_site7054],8.79 ± 0.54
11,TTTATTTATCTTTACGCACACACTTGCATGTACAAA [CACACA_site1118],9.52 ± 0.44
12,TACCTACCTTTACGGAGTACACAATAATAGTTATAA [XGTACX_site6593],8.72 ± 0.41
13,ATATGATTAATTAAGTGTACGTATTTATAATTATAA [XGTACX_site5783],8.6 ± 0.44
14,ATTACAATTTTAATAGTGCATTTTTATATATTTCTA [GTGCAC_site9918],8.6 ± 0.5
15,ATATAACTTTTAAAAGCATGCAAATATTTACTCAAT [TGCATGCA_site396],8.78 ± 0.45
16,TTTTTACTATAAGGGGAAAAAAAAAAAAATAATATA [XGTACX_negctrl_site279],8.2 ± 0.6
17,TAAACATATACACGTACATGCAACGGATTTTTTTTT [TGCATGCA_site70],8.81 ± 0.4
18,CAAGAAAAGAAACACACACACATATATATATATATA [CACACA_site3881],10.4 ± 0.28
19,TATATATATATATGTGCACACATAATAAAAAAAAAA [CACACA_site3830],9.71 ± 0.23
20,ATTTTAGATGAAAAAGCACACAACATATATATATAT [CACACA_site2295],9.44 ± 0.38
21,ATTCTTTTTTTTTGGAAATGTATTTTTATGTTTTGT [TGCATGCA_negctrl_site426],8.76 ± 0.51
22,TTGCCCATTTCATTAACACACAAATGTTTATATTCT [CACACA_site4569],9.09 ± 0.43
23,TTAACTCAAGAGTGTACACATATATATATATATATA [CACACA_site4334],9.96 ± 0.28

row,Sequence,gcPBM binding intensity (ln)
1,AATACCCATTTTAGTACACACTTAAAAAATTATTTT [CACACA_site5611],8.69 ± 0.44
2,TATATTTTTTAAAAAGCATGCAAAAAATAATGATCA [TGCATGCA_site48],8.64 ± 0.35
3,ACGTTGAAGAAATACACATGCATATTCTATATATAT [TGCATGCA_site76],8.91 ± 0.4
4,GTATAATATGAACACACACACACACGCAAAAAAAAA [CACACA_site7036],10.19 ± 0.064
5,TCATTTTATTTTTTCACACACACATATATATATATA [CACACA_site3333],9.54 ± 0.26
6,CTCTTATGCTAGGAAGTGCAATAGTATGGGTACCAC,8.59 ± 0.45
7,TAATATATATAAACATGTACAAATCAAAAACAAAAG [XGTACX_site4076],9.07 ± 0.47
8,ATTTATTTTTATATAACACACAAAGTATAATATAAC [CACACA_site3582],8.63 ± 0.4
9,ATATATTTATATTTATGTACATATCTTTATTTACGT [XGTACX_site6800],9.11 ± 0.51
10,ATATATATATCGATCTGTACATATATTTATAGACAT [XGTACX_site4236],8.97 ± 0.45
11,TGTAAAACTGAAAAGGGTACATATAAATATATATAT [XGTACX_site69],8.88 ± 0.42
12,AAAGAAATACAATGATGTACATTTAAAAAAAATTAA [XGTACX_site4324],8.7 ± 0.62
13,ACAAGAAAATATATTTGTACATATATAATTTTATTT [XGTACX_site548],8.6 ± 0.35
14,ATTAGTAAGAATCATTGTACATTATAATATGTGGTA [XGTACX_site1341],8.84 ± 0.32
15,TTTTTAAAAAAGTAAAGTACAAAAAAAAGGAATATC [XGTACX_site588],8.91 ± 0.7
16,TGCTTCCTTAGGAATGTACACACATATATAATATGT [CACACA_site8048],9.28 ± 0.35
17,TTACATATTTTTTAACGTACATAAATATATATGTAT [XGTACX_site8406],8.69 ± 0.42
18,TTAAATAAAAAAATAACACACATATAAATATATATG [CACACA_site3175],8.78 ± 0.39
19,ACTCAAACCTTTAGAGTGCAAAAAAAAAAAAAAAAA [GTGCAC_site9952],8.46 ± 0.43
20,TTGTAAAAATTAATACATATATATATATATATATAT [CACACA_negctrl_site6],9.53 ± 0.16
21,ATATATTTGATTTACACACTTACAATGTATATAAAT [CACACA_site2993],8.84 ± 0.38

# From the supplement of paper PMC11417369
